These results are taken from paper PMC8986528.

The chains behind the UniProt entries cited, without tags or fusion partners. Where a name states a change or a piece, a line headed by the entry shows the natural chain unless it says otherwise.
UniProt Q99496: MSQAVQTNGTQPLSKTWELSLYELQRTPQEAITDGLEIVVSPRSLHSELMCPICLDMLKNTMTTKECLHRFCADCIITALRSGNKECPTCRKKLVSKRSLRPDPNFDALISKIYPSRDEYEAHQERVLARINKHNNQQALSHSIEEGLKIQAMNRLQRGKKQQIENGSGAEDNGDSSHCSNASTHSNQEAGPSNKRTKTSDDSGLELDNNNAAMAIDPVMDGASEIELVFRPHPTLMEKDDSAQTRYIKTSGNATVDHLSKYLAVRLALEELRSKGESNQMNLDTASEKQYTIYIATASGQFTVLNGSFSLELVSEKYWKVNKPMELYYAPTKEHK
UniProt Q9H4L4: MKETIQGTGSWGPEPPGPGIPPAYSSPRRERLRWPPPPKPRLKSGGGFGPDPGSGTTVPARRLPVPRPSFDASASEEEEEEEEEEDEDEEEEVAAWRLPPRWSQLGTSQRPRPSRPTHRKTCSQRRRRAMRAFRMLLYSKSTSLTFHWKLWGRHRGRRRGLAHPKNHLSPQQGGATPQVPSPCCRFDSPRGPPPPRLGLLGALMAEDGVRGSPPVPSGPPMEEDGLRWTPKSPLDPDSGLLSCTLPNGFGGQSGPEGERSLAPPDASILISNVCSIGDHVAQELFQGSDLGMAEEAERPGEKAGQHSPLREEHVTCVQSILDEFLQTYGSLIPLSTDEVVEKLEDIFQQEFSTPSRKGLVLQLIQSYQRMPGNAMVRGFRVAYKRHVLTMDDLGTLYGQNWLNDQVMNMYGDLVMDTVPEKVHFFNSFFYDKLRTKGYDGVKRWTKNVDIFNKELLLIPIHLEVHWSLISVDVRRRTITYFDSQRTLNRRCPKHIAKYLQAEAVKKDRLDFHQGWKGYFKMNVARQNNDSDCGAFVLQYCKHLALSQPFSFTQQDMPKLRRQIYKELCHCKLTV
UniProt Q8IZL8: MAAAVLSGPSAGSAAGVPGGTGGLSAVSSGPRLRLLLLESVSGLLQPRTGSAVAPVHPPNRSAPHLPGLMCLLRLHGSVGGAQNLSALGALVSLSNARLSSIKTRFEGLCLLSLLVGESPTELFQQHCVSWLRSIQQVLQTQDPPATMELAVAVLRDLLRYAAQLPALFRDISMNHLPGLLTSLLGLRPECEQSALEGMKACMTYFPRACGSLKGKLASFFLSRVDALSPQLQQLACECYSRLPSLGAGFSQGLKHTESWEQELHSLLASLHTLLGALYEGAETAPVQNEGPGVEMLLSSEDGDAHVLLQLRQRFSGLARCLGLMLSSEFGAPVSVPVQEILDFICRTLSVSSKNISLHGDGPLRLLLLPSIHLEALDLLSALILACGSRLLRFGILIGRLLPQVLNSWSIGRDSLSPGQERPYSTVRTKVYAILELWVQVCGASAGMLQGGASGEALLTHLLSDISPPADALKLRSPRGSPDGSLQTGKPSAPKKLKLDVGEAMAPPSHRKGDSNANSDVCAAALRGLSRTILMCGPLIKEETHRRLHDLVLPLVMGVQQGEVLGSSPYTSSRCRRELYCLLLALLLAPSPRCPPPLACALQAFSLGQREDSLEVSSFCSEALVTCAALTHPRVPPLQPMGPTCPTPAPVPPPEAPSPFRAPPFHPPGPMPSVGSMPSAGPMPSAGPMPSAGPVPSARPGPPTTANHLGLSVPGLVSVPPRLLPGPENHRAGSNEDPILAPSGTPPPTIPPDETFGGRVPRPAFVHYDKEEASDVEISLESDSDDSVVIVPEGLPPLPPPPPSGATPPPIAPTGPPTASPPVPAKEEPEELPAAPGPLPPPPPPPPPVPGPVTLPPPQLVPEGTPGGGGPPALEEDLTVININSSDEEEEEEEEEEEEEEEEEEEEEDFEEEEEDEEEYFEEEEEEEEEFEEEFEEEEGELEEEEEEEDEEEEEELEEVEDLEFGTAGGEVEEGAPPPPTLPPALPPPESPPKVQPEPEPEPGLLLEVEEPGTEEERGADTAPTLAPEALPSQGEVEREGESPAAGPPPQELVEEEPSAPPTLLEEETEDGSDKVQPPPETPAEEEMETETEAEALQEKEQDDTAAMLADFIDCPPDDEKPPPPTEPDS

Test [1] concerns the target RING1B (human (endogenous in HEK 293FT)) (UniProt Q99496). The experiment in a line: co-IP; immunoprecipitation from the DNase I-digested chromatin fraction of HEK 293FT cells (IP buffer 250 mM NaCl, 1% Triton X-100), Dynabeads Protein A/G, immunoblot; Fig. 1f, g with or without 500 U/ml benzonase.
Test [2] has as its target RING1B(Q137A/Q138A) (human (endogenous in HEK 293FT)) (UniProt Q99496). The description is as above.

Results are given in words; binding and its absence hold for the method and conditions named. Binding seen in cells or lysates may run through a third protein. Some results given as binding are weak or reduced against the parent protein; the word gives no strength.

Regarding SENP3 (from UniProt Q9H4L4 1-574), in test [1], the binding entry was “binds”.
Turning to PELP1 (from UniProt Q8IZL8 1-1130), the binding result in test [1] was “binds”.

B1: NOL9 (protein, UniProt Q5SY16 1-702)
chain: MADSGLLLKRGSCRSTWLRVRKARPQLILSRRPRRRLGSLRWCGRRRLRWRLLQAQASGVDWREGARQVSRAAAARRPNTATPSPIPSPTPASEPESEPELESASSCHRPLLIPPVRPVGPGRALLLLPVEQGFTFSGICRVTCLYGQVQVFGFTISQGQPAQDIFSVYTHSCLSIHALHYSQPEKSKKELKREARNLLKSHLNLDDRRWSMQNFSPQCSIVLLEHLKTATVNFITSYPGSSYIFVQESPTPQIKPEYLALRSVGIRREKKRKGLQLTESTLSALEELVNVSCEEVDGCPVILVCGSQDVGKSTFNRYLINHLLNSLPCVDYLECDLGQTEFTPPGCISLLNITEPVLGPPFTHLRTPQKMVYYGKPSCKNNYENYIDIVKYVFSAYKRESPLIVNTMGWVSDQGLLLLIDLIRLLSPSHVVQFRSDHSKYMPDLTPQYVDDMDGLYTKSKTKMRNRRFRLAAFADALEFADEEKESPVEFTGHKLIGVYTDFAFRITPRNRESHNKILRDLSILSYLSQLQPPMPKPLSPLHSLTPYQVPFNAVALRITHSDVAPTHILYAVNASWVGLCKIQDDVRGYTNGPILLAQTPICDCLGFGICRGIDMEKRLYHILTPVPPEELRTVNCLLVGAIAIPHCVLKCQRGIEGTVPYVTTDYNFKLPGASEKIGAREPEEAHKEKPYRRPKFCRKMK
Turning to B1, the binding entry in test [1] is on record as “binds”.

B2: YAF2 (protein, UniProt Q8IY57 1-180)
chain: MGDKKSPTRPKRQPKPSSDEGYWDCSVCTFRNSAEAFKCMMCDVRKGTSTRKPRPVSQLVAQQVTQQFVPPTQSKKEKKDKVEKEKSEKETTSKKNSHKKTRPRLKNVDRSSAQHLEVTVGDLTVIITDFKEKTKSPPASSAASADQHSQSGSSSDNTERGMSRSSSPRGEASSLNGESH
B2: the binding result in test [1] and in test [2] was “binds” each time.

B3: PHC2 (protein, UniProt Q8IXK0 1-858)
chain: MENELPVPHTSSSACATSSTSGASSSSGCNNSSSGGSGRPTGPQISVYSGIPDRQTVQVIQQALHRQPSTAAQYLQQMYAAQQQHLMLQTAALQQQHLSSAQLQSLAAVQQASLVSNRQGSTSGSNVSAQAPAQSSSINLAASPAAAQLLNRAQSVNSAAASGIAQQAVLLGNTSSPALTASQAQMYLRAQMLIFTPTATVATVQPELGTGSPARPPTPAQVQNLTLRTQQTPAAAASGPTPTQPVLPSLALKPTPGGSQPLPTPAQSRNTAQASPAGAKPGIADSVMEPHKKGDGNSSVPGSMEGRAGLSRTVPAVAAHPLIAPAYAQLQPHQLLPQPSSKHLQPQFVIQQQPQPQQQQPPPQQSRPVLQAEPHPQLASVSPSVALQPSSEAHAMPLGPVTPALPLQCPTANLHKPGGSQQCHPPTPDTGPQNGHPEGVPHTPQRRFQHTSAVILQLQPASPPQQCVPDDWKEVAPGEKSVPETRSGPSPHQQAIVTAMPGGLPVPTSPNIQPSPAHETGQGIVHALTDLSSPGMTSGNGNSASSIAGTAPQNGENKPPQAIVKPQILTHVIEGFVIQEGAEPFPVGRSSLLVGNLKKKYAQGFLPEKLPQQDHTTTTDSEMEEPYLQESKEEGAPLKLKCELCGRVDFAYKFKRSKRFCSMACAKRYNVGCTKRVGLFHSDRSKLQKAGAATHNRRRASKASLPPLTKDTKKQPTGTVPLSVTAALQLTHSQEDSSRCSDNSSYEEPLSPISASSSTSRRRQGQRDLELPDMHMRDLVGMGHHFLPSEPTKWNVEDVYEFIRSLPGCQEIAEEFRAQEIDGQALLLLKEDHLMSAMNIKLGPALKIYARISMLKDS
Take B3: the binding entry in test [1] and in test [2] was “binds” each time.

B4: RYBP (protein, UniProt Q8N488 1-228)
chain: MTMGDKKSPTRPKRQAKPAADEGFWDCSVCTFRNSAEAFKCSICDVRKGTSTRKPRINSQLVAQQVAQQYATPPPPKKEKKEKVEKQDKEKPEKDKEISPSVTKKNTNKKTKPKSDILKDPPSEANSIQSANATTKTSETNHTSRPRLKNVDRSTAQQLAVTVGNVTVIITDFKEKTRSSSTSSSTVTSSAGSEQQNQSSSGSESTDKGSSRSSTPKGDMSAVNDESF
In the case of B4, the binding result in test [1] and in test [2] was “binds” in each case.

B5: PCGF6 (protein, UniProt Q9BYE7 1-350)
chain: MEGVAVVTAGSVGAAKTEGAAALPPPPPVSPPALTPAPAAGEEGPAPLSETGAPGCSGSRPPELEPERSLGRFRGRFEDEDEELEEEEELEEEEEEEEEDMSHFSLRLEGGRQDSEDEEERLINLSELTPYILCSICKGYLIDATTITECLHTFCKSCIVRHFYYSNRCPKCNIVVHQTQPLYNIRLDRQLQDIVYKLVINLEEREKKQMHDFYKERGLEVPKPAVPQPVPSSKGRSKKVLESVFRIPPELDMSLLLEFIGANEGTGHFKPLEKKFVRVSGEATIGHVEKFLRRKMGLDPACQVDIICGDHLLEQYQTLREIRRAIGDAAMQDGLLVLHYGLVVSPLKIT
In the case of B5, the binding result in test [1] and in test [2] was “binds” in each case.
